Residue numbers refer to the chain shown, from its start. Names and notes keep the numbering of the source. No constants are given. Whether binding was seen depends on the method and setting. Some results given as binding are weak or reduced against the parent protein; the word gives no strength. Tags and fused reporters may be left off the sequences shown.
T1: Prp3 fused to the GAL4 DNA-binding domain (S. cerevisiae) (UniProt Q03338)
T1 sequence: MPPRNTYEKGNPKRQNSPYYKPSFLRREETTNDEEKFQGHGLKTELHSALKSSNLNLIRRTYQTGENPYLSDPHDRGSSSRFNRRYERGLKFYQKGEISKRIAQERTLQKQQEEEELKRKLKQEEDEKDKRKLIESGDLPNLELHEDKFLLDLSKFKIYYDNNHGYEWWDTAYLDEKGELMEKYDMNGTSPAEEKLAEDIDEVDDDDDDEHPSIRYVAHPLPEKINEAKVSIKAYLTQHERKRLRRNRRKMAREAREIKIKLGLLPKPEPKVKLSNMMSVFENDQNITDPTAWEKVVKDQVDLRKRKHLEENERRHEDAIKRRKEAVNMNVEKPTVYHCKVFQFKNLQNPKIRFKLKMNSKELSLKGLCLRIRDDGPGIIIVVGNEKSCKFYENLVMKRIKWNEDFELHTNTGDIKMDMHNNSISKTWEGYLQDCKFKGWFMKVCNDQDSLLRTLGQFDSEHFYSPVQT

T2: Prp5 fused to the GAL4 DNA-binding domain (S. cerevisiae) (UniProt P21372)
T2 sequence: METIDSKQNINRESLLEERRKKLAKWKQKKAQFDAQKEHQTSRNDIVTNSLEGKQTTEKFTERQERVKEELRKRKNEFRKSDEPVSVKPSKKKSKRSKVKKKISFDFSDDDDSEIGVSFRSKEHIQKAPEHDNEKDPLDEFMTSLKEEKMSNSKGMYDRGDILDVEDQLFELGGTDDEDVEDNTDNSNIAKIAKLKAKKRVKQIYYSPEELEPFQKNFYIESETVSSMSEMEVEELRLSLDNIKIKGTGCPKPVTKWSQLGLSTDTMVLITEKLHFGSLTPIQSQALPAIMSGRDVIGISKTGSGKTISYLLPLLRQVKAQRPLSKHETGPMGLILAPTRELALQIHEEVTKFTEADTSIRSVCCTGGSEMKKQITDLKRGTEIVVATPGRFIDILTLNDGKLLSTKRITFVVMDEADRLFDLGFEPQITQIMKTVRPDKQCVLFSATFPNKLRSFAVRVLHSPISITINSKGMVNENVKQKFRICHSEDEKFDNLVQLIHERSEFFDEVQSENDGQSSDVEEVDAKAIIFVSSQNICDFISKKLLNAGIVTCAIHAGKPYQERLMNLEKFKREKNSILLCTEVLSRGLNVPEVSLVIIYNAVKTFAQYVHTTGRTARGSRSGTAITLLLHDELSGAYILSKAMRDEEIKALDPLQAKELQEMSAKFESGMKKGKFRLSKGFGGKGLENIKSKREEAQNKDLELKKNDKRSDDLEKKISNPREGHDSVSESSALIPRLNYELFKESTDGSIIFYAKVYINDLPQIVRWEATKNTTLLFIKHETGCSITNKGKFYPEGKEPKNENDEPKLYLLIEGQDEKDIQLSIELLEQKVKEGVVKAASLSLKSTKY

B1: Hsh155 wild type fused to the GAL4 activation domain (protein, UniProt P49955 1-971)
chain: MSHPIQFVNANNSDKSHQLGGQYSIPQDLRENLQKEAARIGENEKDVLQEKMETRTVQNREDSYHKRRFDMKFEPDSDTQTVTSSENTQDAVVPRKRKSRWDVKGYEPPDESSTAVKENSDSALVNVEGIHDLMFFKPSDHKYFADVISKKPIDELNKDEKKERTLSMLLLKIKNGNTASRRTSMRILTDKAVTFGPEMIFNRLLPILLDRSLEDQERHLMIKTIDRVLYQLGDLTKPYVHKILVVAAPLLIDEDPMVRSTGQEIITNLSTVAGLKTILTVMRPDIENEDEYVRNVTSRAAAVVAKALGVNQLLPFINAACHSRKSWKARHTGIKIVQQIGILLGIGVLNHLTGLMSCIKDCLMDDHVPVRIVTAHTLSTLAENSYPYGIEVFNVVLEPLWKGIRSHRGKVLSSFLKAVGSMIPLMDPEYAGYYTTEAMRIIRREFDSPDDEMKKTILLVLQKCSAVESITPKFLREEIAPEFFQKFWVRRVALDRPLNKVVTYTTVTLAKKLGCSYTIDKLLTPLRDEAEPFRTMAVHAVTRTVNLLGTADLDERLETRLIDALLIAFQEQTNSDSIIFKGFGAVTVSLDIRMKPFLAPIVSTILNHLKHKTPLVRQHAADLCAILIPVIKNCHEFEMLNKLNIILYESLGEVYPEVLGSIINAMYCITSVMDLDKLQPPINQILPTLTPILRNKHRKVEVNTIKFVGLIGKLAPTYAPPKEWMRICFELLELLKSTNKEIRRSANATFGFIAEAIGPHDVLVALLNNLKVQERQLRVCTAVAIGIVAKVCGPYNVLPVIMNEYTTPETNVQNGVLKAMSFMFEYIGNMSKDYIYFITPLLEDALTDRDLVHRQTASNVITHLALNCSGTGHEDAFIHLMNLLIPNIFETSPHAIMRILEGLEALSQALGPGLFMNYIWAGLFHPAKNVRKAFWRVYNNMYVMYQDAMVPFYPVTPDNNEEYIEELDLVL
B2: Hsh155^V502F fused to the GAL4 activation domain (protein, UniProt P49955 1-971)
chain: B1 chain with V502F
B3: Hsh155^E571K fused to the GAL4 activation domain (protein, UniProt P49955 1-971)
chain: B1 chain with E571K
B4: Hsh155^D563G fused to the GAL4 activation domain (protein, UniProt P49955 1-971)
chain: B1 chain with D563G

What follows are binders tested against T1, Prp3 fused to the GAL4 DNA-binding domain (S. cerevisiae) (assay: two-hybrid; Hsh155 fused to the GAL4 activation domain, Prp5 or Prp3 fused to the GAL4 DNA-binding domain (pGBKT7); strain Y2H GOLD; growth on media lacking histidine, leucine and tryptophan, 30°C, three days).

Row | binding | Binder
1 | binds | B1
2 | no binding | B2
3 | binds | B3
4 | binds | B4

These binders were tested against T2, Prp5 fused to the GAL4 DNA-binding domain (S. cerevisiae) in the same assay as above.

Row | binding | Binder
5 | binds | B1
6 | no binding | B2
7 | binds | B3
8 | binds | B4

Reference: paper PMC7176370
